Measurements: the antibiotic and cytotoxicity screens of Wong et al. (2023)
The other results are listed elsewhere or left out.

Tested on: HepG2
Test: cytotoxicity call (relative viability < 0.9)
Conditions: 10 µM

Structure (SMILES)	cytotoxicity call
C[C@@H]1CN([C@@H](C)CO)C(=O)c2cc(C#CC3(O)CCCC3)cnc2O[C@H]1CN(C)C(=O)Nc1ccc2c(c1)OCO2	inactive
C[C@H]1CN([C@@H](C)CO)C(=O)c2cc(-c3ccc(F)cc3)cnc2O[C@@H]1CN(C)C(=O)Cc1ccccn1	inactive
COc1ccccc1CNC(=O)C[C@@H]1C[C@H]2c3cc(NC(=O)C4CCOCC4)ccc3O[C@H]2[C@H](CO)O1	inactive
COc1ccc([C@@H]([C@H](Cc2ccccc2)OC(C)=O)N2C[C@H]3C(=NO[C@@H]3[C@@H](OC(C)=O)c3ccccc3)[C@@H]2Cc2ccccc2)cc1	inactive
C[C@@H]1CN([C@@H](C)CO)C(=O)c2cc(NS(=O)(=O)c3ccc(F)cc3)ccc2O[C@@H](C)CCCCO[C@@H]1CN(C)S(=O)(=O)c1cn(C)cn1	inactive
CC1=C(/C=C/C(C)=C/C=C/C(C)=C/C(=O)O)C(C)(C)CCC1	inactive
Cc1ccc(S(=O)(=O)N(C)C[C@H]2Oc3c(NC(=O)c4cnccn4)cccc3C(=O)N([C@H](C)CO)C[C@@H]2C)cc1	inactive
O=C1OCC=C[C@H]2O[C@@]34C=CCN(Cn5nnc6ccccc65)C(=O)[C@H]3N(CCO)C(=O)[C@@H]4[C@@H]12	inactive
C[C@@H]1CN([C@H](C)CO)C(=O)Cc2cc(NS(C)(=O)=O)ccc2O[C@@H]1CN(C)C(=O)Nc1ccc2c(c1)OCO2	inactive
C[C@H](CO)N1C[C@H](C)[C@@H](CN(C)Cc2ccc(-c3ccccc3)cc2)Oc2c(NS(=O)(=O)c3ccccc3)cccc2C1=O	inactive
